These results are taken from the BET-seq Pho4 binding data (Le et al. 2018).

The other results are listed elsewhere or left out. These are noisy estimates, calculated here from bound and input reads.

The test deals with T1, Pho4 (S. cerevisiae) (UniProt P07270).
T1 sequence: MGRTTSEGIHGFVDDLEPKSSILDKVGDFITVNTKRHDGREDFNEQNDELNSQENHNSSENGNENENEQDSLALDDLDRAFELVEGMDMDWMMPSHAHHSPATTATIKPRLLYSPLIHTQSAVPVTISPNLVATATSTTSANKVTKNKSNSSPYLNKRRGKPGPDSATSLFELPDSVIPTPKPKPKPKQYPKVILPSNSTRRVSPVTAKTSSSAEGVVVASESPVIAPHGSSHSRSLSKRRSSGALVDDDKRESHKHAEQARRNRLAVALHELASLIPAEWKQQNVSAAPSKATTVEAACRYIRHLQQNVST
In words: relative binding free energy (BET-seq); higher = weaker binding. The conditions noted are these: reference: library average.
As to GTGGCCACGTGGAGCG, the “relative binding free energy” value is -0.1 kcal/mol.

On to TGTAGCACGTGATGGT, for which the “relative binding free energy” value stood at 0.12 kcal/mol.

TTCGTCACGTGTGAGG: the “relative binding free energy” value was found to be 0.21 kcal/mol.

As for ATTTGCACGTGATTGT, the “relative binding free energy” value was 0.15 kcal/mol.

For the sequence GAATTCACGTGCTTGG, the “relative binding free energy” value came to 0.39 kcal/mol.

Take CATTGCACGTGTGAAT: the “relative binding free energy” value worked out at 0.26 kcal/mol.

Consider TACGGCACGTGTGAGG, for which the “relative binding free energy” value was found to be 0.06 kcal/mol.

Regarding ATTGTCACGTGAGTGA, the “relative binding free energy” value came to 0.28 kcal/mol.

Regarding TGGGTCACGTGAACTT, the “relative binding free energy” value worked out at 0.16 kcal/mol.

TAAGTCACGTGTTTCA: the “relative binding free energy” value stood at 0.07 kcal/mol.

On to CTAGGCACGTGATGTT, for which the “relative binding free energy” value was -0.04 kcal/mol.

As to TTCAGCACGTGTGGTT, the “relative binding free energy” value was -0.07 kcal/mol.

For AGGGACACGTGGTACA, the “relative binding free energy” value was -0.06 kcal/mol.

ATGTGCACGTGTTGCG: the “relative binding free energy” value was -0.01 kcal/mol.

For ACTTACACGTGGGTGT, the “relative binding free energy” value is -0.03 kcal/mol.

Consider GGTTACACGTGAAGTT, for which the “relative binding free energy” value was 0.35 kcal/mol.

Take AGTGCCACGTGGGTCG: the “relative binding free energy” value was -0.37 kcal/mol.

For the sequence CAGATCACGTGCTGGG, the “relative binding free energy” value amounted to 0.24 kcal/mol.

As for GTTGCCACGTGGAGGA, the “relative binding free energy” value came out at 0.06 kcal/mol.

With GCGTGCACGTGAATTG, the “relative binding free energy” value amounted to 0.22 kcal/mol.

In the case of TGCAGCACGTGGGGTC, the “relative binding free energy” value was -0.25 kcal/mol.

Take TATCGCACGTGGGTAG: the “relative binding free energy” value was -0.1 kcal/mol.

On to GATCTCACGTGAGTTT, for which the “relative binding free energy” value is 0.54 kcal/mol.

As to CGGTTCACGTGTATGT, the “relative binding free energy” value amounted to 0.2 kcal/mol.

As to TTATACACGTGTGAGG, the “relative binding free energy” value came out at 0.19 kcal/mol.

On to TTTGTCACGTGATCCG, for which the “relative binding free energy” value came to 0.25 kcal/mol.

Take TGGCTCACGTGCGGGT: the “relative binding free energy” value was 0.21 kcal/mol.

As for GCCCGCACGTGGGTGG, the “relative binding free energy” value is -0.2 kcal/mol.

For ATTCGCACGTGGCGGG, the “relative binding free energy” value was -0.02 kcal/mol.

For the sequence AATTGCACGTGGAGCT, the “relative binding free energy” value is -0.03 kcal/mol.

As for CTGGGCACGTGGGGAA, the “relative binding free energy” value was -0.25 kcal/mol.

With TGTCGCACGTGCTGTT, the “relative binding free energy” value was -0.18 kcal/mol.

Turning to GCTATCACGTGGTGAG, the “relative binding free energy” value came out at 0.17 kcal/mol.

TGTAGCACGTGCTAGA: the “relative binding free energy” value is -0.04 kcal/mol.

As to GCTTACACGTGTGTGA, the “relative binding free energy” value came out at 0.33 kcal/mol.

For the sequence TTGTCCACGTGGGACG, the “relative binding free energy” value was 0.04 kcal/mol.

GATTGCACGTGGGTTT: the “relative binding free energy” value is -0.01 kcal/mol.

For ACGGGCACGTGATTGG, the “relative binding free energy” value was found to be 0.05 kcal/mol.

TAGATCACGTGGGAAA: the “relative binding free energy” value was determined as 0.13 kcal/mol.

Take AGTATCACGTGGGAGC: the “relative binding free energy” value was found to be 0.03 kcal/mol.

As for GAGTTCACGTGCTGGT, the “relative binding free energy” value turned out to be 0.43 kcal/mol.

On to TTTTTCACGTGGATTC, for which the “relative binding free energy” value was 0.25 kcal/mol.

Regarding GTCAGCACGTGAAGTG, the “relative binding free energy” value was determined as 0.26 kcal/mol.

Take TGAAGCACGTGTATAT: the “relative binding free energy” value was found to be 0.03 kcal/mol.

ATAATCACGTGATATA: the “relative binding free energy” value is 0.29 kcal/mol.

Regarding CTAGGCACGTGGCGGG, the “relative binding free energy” value was -0.2 kcal/mol.

Regarding TGCTTCACGTGTTTTA, the “relative binding free energy” value turned out to be 0.19 kcal/mol.

With GTCTGCACGTGGGAGT, the “relative binding free energy” value is -0.08 kcal/mol.

As for TATAGCACGTGTCTTG, the “relative binding free energy” value is -0.08 kcal/mol.

For ATTGGCACGTGTGGCA, the “relative binding free energy” value is -0.18 kcal/mol.

Consider TGTACCACGTGCGTTG, for which the “relative binding free energy” value is -0.06 kcal/mol.

Take AGATTCACGTGTTTCG: the “relative binding free energy” value stood at 0.16 kcal/mol.

In the case of TTGAACACGTGAGTGA, the “relative binding free energy” value is 0.32 kcal/mol.

For AGTATCACGTGCAAGT, the “relative binding free energy” value is 0.22 kcal/mol.

As for CGGGTCACGTGAGATG, the “relative binding free energy” value is 0.41 kcal/mol.

Take TTGCTCACGTGTGGGT: the “relative binding free energy” value is 0.14 kcal/mol.

In the case of GAATGCACGTGTGAGT, the “relative binding free energy” value was -0.05 kcal/mol.

For the sequence ATGGCCACGTGGGTTT, the “relative binding free energy” value was -0.18 kcal/mol.

Take AGGTACACGTGCGGGA: the “relative binding free energy” value was -0.02 kcal/mol.

Regarding GGAGCCACGTGTGATG, the “relative binding free energy” value is -0.01 kcal/mol.

With GTAAGCACGTGTGTGG, the “relative binding free energy” value was 0.06 kcal/mol.

For AGTATCACGTGTTCTG, the “relative binding free energy” value was found to be 0.04 kcal/mol.

Consider GAGCACACGTGGAGGT, for which the “relative binding free energy” value came to 0.15 kcal/mol.

In the case of CGAGTCACGTGTGATG, the “relative binding free energy” value was 0.13 kcal/mol.

As for GGATTCACGTGGTTGA, the “relative binding free energy” value is 0.29 kcal/mol.

Regarding AAGGGCACGTGGAGGC, the “relative binding free energy” value was -0.27 kcal/mol.

Take GGGGTCACGTGTTCTA: the “relative binding free energy” value is 0.29 kcal/mol.

Take CGTCTCACGTGTAGGG: the “relative binding free energy” value was -0.03 kcal/mol.

Turning to TGTGCCACGTGTTGGT, the “relative binding free energy” value is -0.17 kcal/mol.

GTAAGCACGTGGTGTG: the “relative binding free energy” value was -0.18 kcal/mol.

For the sequence GCGGCCACGTGTGGAT, the “relative binding free energy” value is 0.11 kcal/mol.

With AGGTCCACGTGGTAGT, the “relative binding free energy” value is -0.09 kcal/mol.

For the sequence TAGTGCACGTGCAAGT, the “relative binding free energy” value was -0.1 kcal/mol.

TAATACACGTGGTGTA: the “relative binding free energy” value was -0.06 kcal/mol.

Regarding GGTGACACGTGGGAGA, the “relative binding free energy” value was -0.09 kcal/mol.

Consider CTGGGCACGTGTGCTT, for which the “relative binding free energy” value was -0.15 kcal/mol.

In the case of ACTGGCACGTGGTATG, the “relative binding free energy” value is -0.29 kcal/mol.

Turning to TAGTACACGTGTTTGG, the “relative binding free energy” value was 0.08 kcal/mol.

For GGGTGCACGTGGAAGC, the “relative binding free energy” value was -0.07 kcal/mol.

For TTTCTCACGTGTCTGT, the “relative binding free energy” value was found to be 0.14 kcal/mol.

Regarding GAGGTCACGTGAGTGT, the “relative binding free energy” value turned out to be 0.39 kcal/mol.

As to GTGTCCACGTGGGGGT, the “relative binding free energy” value is -0.07 kcal/mol.

On to GATATCACGTGGCGGT, for which the “relative binding free energy” value amounted to 0.14 kcal/mol.

Turning to TTGTTCACGTGTGTAG, the “relative binding free energy” value was determined as 0.26 kcal/mol.

Regarding TGTCGCACGTGGCTAT, the “relative binding free energy” value was -0.11 kcal/mol.

As to AAGTTCACGTGGACTA, the “relative binding free energy” value was found to be 0.53 kcal/mol.

As to GGTTTCACGTGCTCGT, the “relative binding free energy” value was 0.4 kcal/mol.

TCAAGCACGTGGTAGG: the “relative binding free energy” value is -0.19 kcal/mol.

Regarding TGGTTCACGTGGAAGA, the “relative binding free energy” value turned out to be 0.38 kcal/mol.

Consider GGTCTCACGTGTTGTA, for which the “relative binding free energy” value stood at 0.34 kcal/mol.

For TGTGTCACGTGTGTTC, the “relative binding free energy” value amounted to 0.16 kcal/mol.

Regarding CTTTTCACGTGATTCT, the “relative binding free energy” value is 0.28 kcal/mol.

In the case of CGTGTCACGTGCTGGA, the “relative binding free energy” value amounted to 0 kcal/mol.

As for TAATGCACGTGGGGCT, the “relative binding free energy” value is -0.16 kcal/mol.

For the sequence CTAGACACGTGGTGGT, the “relative binding free energy” value was -0.15 kcal/mol.

In the case of AGGTGCACGTGCGGGA, the “relative binding free energy” value was -0.09 kcal/mol.

In the case of TAGTACACGTGGCGGT, the “relative binding free energy” value is -0.1 kcal/mol.

On to TTTAACACGTGGGTCA, for which the “relative binding free energy” value was -0.22 kcal/mol.

In the case of ATTAACACGTGTTTAA, the “relative binding free energy” value is -0.04 kcal/mol.

With GAGTGCACGTGAGGAT, the “relative binding free energy” value came to 0.32 kcal/mol.

For the sequence GGGGTCACGTGGTTTC, the “relative binding free energy” value is 0.2 kcal/mol.

With ATGTTCACGTGGGATT, the “relative binding free energy” value came to 0.3 kcal/mol.

With GAAGTCACGTGATGGA, the “relative binding free energy” value turned out to be 0.36 kcal/mol.

As to GTGGTCACGTGAGCGC, the “relative binding free energy” value came to 0.36 kcal/mol.

Take AAGGGCACGTGTATGG: the “relative binding free energy” value was -0.12 kcal/mol.

For the sequence AGCAGCACGTGGGAGT, the “relative binding free energy” value was -0.12 kcal/mol.

Consider TTAATCACGTGATGGT, for which the “relative binding free energy” value was 0.18 kcal/mol.

Take TGAGTCACGTGTAGTG: the “relative binding free energy” value is 0.17 kcal/mol.

On to GAAGGCACGTGGTTCG, for which the “relative binding free energy” value is -0.08 kcal/mol.

As for CATGCCACGTGGGTTT, the “relative binding free energy” value is -0.19 kcal/mol.

With ATGAACACGTGTATGG, the “relative binding free energy” value was -0.08 kcal/mol.

With GGGACCACGTGAGGGT, the “relative binding free energy” value is 0.25 kcal/mol.

Regarding GAGTCCACGTGTAGTG, the “relative binding free energy” value is 0.22 kcal/mol.

In the case of AGCGTCACGTGAGGTA, the “relative binding free energy” value was 0.32 kcal/mol.

For TTTGTCACGTGTGTGC, the “relative binding free energy” value worked out at 0.13 kcal/mol.
